# Measurements published in the supplement of paper PMC8728848.
# The other results are listed elsewhere or left out.
# B1: SefD (Salmonella enterica), Q9L6K6 (protein)
# chain: GAYIIRGQNNSAHKLRIRIGGEDWQPDNSGIGMVSHSDFTNEFNIYYFGNGDIPVDTYLISIYATEIEL
# Experiments:
# Experiment in all cases: glycan array binding signal (z-score within array); higher = stronger binding
# Settings in all cases: glycan notation: IUPAC condensed, linker removed
# Gal(a1-3)Gal = target: Gal(a1-3)Gal
# Outline: (§1)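 Negative Z-scores can be read as non-binding. The Z-score is calculated within each array and then averaged across arrays of one protein sequence at different concentrations or buffers and across linkers. Arrays, 3228 in all, were curated from the Consortium for Functional Glycomics database and kept only where the protein sequence was available.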
# Gal(a1-3)Gal(b1-3)GlcNAc = target: Gal(a1-3)Gal(b1-3)GlcNAc
# Outline: as §1
# [1] = target: Gal(a1-3)Gal(b1-3)GlcNAc(b1-2)Man(a1-3)[Gal(a1-3)Gal(b1-3)GlcNAc(b1-2)Man(a1-6)]Man(b1-4)GlcNAc(b1-4)GlcNAc
# Outline: as §1
# [2] = target: Gal(a1-3)Gal(b1-3)GlcNAc(b1-3)GalNAc
# Outline: as §1
# [3] = target: Gal(a1-3)Gal(b1-3)[Fuc(a1-4)]GlcNAc(b1-2)Man(a1-3)[Gal(a1-3)Gal(b1-3)[Fuc(a1-4)]GlcNAc(b1-2)Man(a1-6)]Man(b1-4)GlcNAc(b1-4)GlcNAc
# Outline: as §1
# Gal(a1-3)Gal(b1-4)Glc = target: Gal(a1-3)Gal(b1-4)Glc
# Outline: as §1
# Gal(a1-3)Gal(b1-4)GlcNAc = target: Gal(a1-3)Gal(b1-4)GlcNAc
# Outline: as §1
# [4] = target: Gal(a1-3)Gal(b1-4)GlcNAc(b1-3)GalNAc
# Outline: as §1
# [5] = target: Gal(a1-3)Gal(b1-4)[Fuc(a1-3)]GlcNAc
# Outline: as §1
# [6] = target: Gal(a1-3)Gal(b1-4)[Fuc(a1-3)]GlcNAc(b1-2)Man(a1-3)[Gal(a1-3)Gal(b1-4)[Fuc(a1-3)]GlcNAc(b1-2)Man(a1-6)]Man(b1-4)GlcNAc(b1-4)GlcNAc
# Outline: as §1
# Gal(a1-3)GalNAc = target: Gal(a1-3)GalNAc
# Outline: as §1
# [7] = target: Gal(a1-3)[Gal(a1-4)]Gal(b1-4)GlcNAc
# Outline: as §1
# [8] = target: Gal(a1-4)Gal(b1-3)GlcNAc(b1-2)Man(a1-3)[Gal(a1-4)Gal(b1-3)GlcNAc(b1-2)Man(a1-6)]Man(b1-4)GlcNAc(b1-4)GlcNAc
# Outline: as §1
# Gal(a1-4)Gal(b1-4)Glc = target: Gal(a1-4)Gal(b1-4)Glc
# Outline: as §1
# Gal(a1-4)Gal(b1-4)GlcNAc = target: Gal(a1-4)Gal(b1-4)GlcNAc
# Outline: as §1
# [9] = target: Gal(a1-4)Gal(b1-4)GlcNAc(b1-2)Man(a1-3)[Gal(a1-4)Gal(b1-4)GlcNAc(b1-2)Man(a1-6)]Man(b1-4)GlcNAc(b1-4)GlcNAc
# Outline: as §1
# [10] = target: Gal(a1-4)Gal(b1-4)GlcNAc(b1-3)Gal(b1-4)Glc
# Outline: as §1
# Gal(a1-4)GlcNAc = target: Gal(a1-4)GlcNAc
# Outline: as §1
# Gal(a1-6)Glc = target: Gal(a1-6)Glc
# Outline: as §1
# Gal(b1-2)Gal = target: Gal(b1-2)Gal
# Outline: as §1
# Gal(b1-3)Gal = target: Gal(b1-3)Gal
# Outline: as §1
# Gal(b1-3)Gal(b1-4)GlcNAc = target: Gal(b1-3)Gal(b1-4)GlcNAc
# Outline: as §1
# [11] = target: Gal(b1-3)Gal(b1-4)GlcNAc(b1-2)Man(a1-3)[Gal(b1-3)Gal(b1-4)GlcNAc(b1-2)Man(a1-6)]Man(b1-4)GlcNAc(b1-4)GlcNAc
# Outline: as §1
# Gal(b1-3)GalNAc = target: Gal(b1-3)GalNAc
# Outline: as §1
# [12] = target: Gal(b1-3)GalNAc(a1-3)[Fuc(a1-2)]Gal(b1-4)Glc
# Outline: as §1
# [13] = target: Gal(b1-3)GalNAc(a1-3)[Fuc(a1-2)]Gal(b1-4)GlcNAc
# Outline: as §1
# [14] = target: Gal(b1-3)GalNAc(b1-3)Gal(a1-4)Gal(b1-4)Glc
# Outline: as §1
# [15] = target: Gal(b1-3)GalNAc(b1-4)Gal(b1-4)Glc
# Outline: as §1
# [16] = target: Gal(b1-3)GalNAc(b1-4)[Neu5Ac(a2-3)]Gal(b1-4)Glc
# Outline: as §1
# Gal(b1-3)GlcNAc = target: Gal(b1-3)GlcNAc
# Outline: as §1
# [17] = target: Gal(b1-3)GlcNAc(a1-6)Gal(b1-4)GlcNAc
# Outline: as §1
# [18] = target: Gal(b1-3)GlcNAc(b1-2)Man(a1-3)[Gal(b1-3)GlcNAc(b1-2)Man(a1-6)]Man(b1-4)GlcNAc(b1-4)GlcNAc
# Outline: as §1
# [19] = target: Gal(b1-3)GlcNAc(b1-2)Man(a1-3)[Gal(b1-3)GlcNAc(b1-2)Man(a1-6)]Man(b1-4)GlcNAc(b1-4)[Fuc(a1-6)]GlcNAc
# Outline: as §1
# [20] = target: Gal(b1-3)GlcNAc(b1-2)[Gal(b1-3)GlcNAc(b1-6)]Man(a1-6)[Gal(b1-3)GlcNAc(b1-2)Man(a1-3)]Man(b1-4)GlcNAc(b1-4)GlcNAc
# Outline: as §1
# [21] = target: Gal(b1-3)GlcNAc(b1-3)Gal(b1-3)GlcNAc
# Outline: as §1
# [22] = target: Gal(b1-3)GlcNAc(b1-3)Gal(b1-4)Glc
# Outline: as §1
# [23] = target: Gal(b1-3)GlcNAc(b1-3)Gal(b1-4)GlcNAc
# Outline: as §1
# [24] = target: Gal(b1-3)GlcNAc(b1-3)Gal(b1-4)GlcNAc(b1-6)[Gal(b1-3)GlcNAc(b1-3)]Gal(b1-4)Glc
# Outline: as §1
# [25] = target: Gal(b1-3)GlcNAc(b1-3)Gal(b1-4)[Fuc(a1-3)]GlcNAc(b1-6)[Gal(b1-3)GlcNAc(b1-3)]Gal(b1-4)Glc
# Outline: as §1
# [26] = target: Gal(b1-3)GlcNAc(b1-3)GalNAc
# Outline: as §1
# [27] = target: Gal(b1-3)GlcNAc(b1-6)Gal(b1-4)GlcNAc
# Outline: as §1
# [28] = target: Gal(b1-3)[Fuc(a1-4)]GlcNAc
# Outline: as §1
# [29] = target: Gal(b1-3)[Fuc(a1-4)]GlcNAc(b1-2)Man(a1-3)[Gal(b1-3)[Fuc(a1-4)]GlcNAc(b1-2)Man(a1-6)]Man(b1-4)GlcNAc(b1-4)GlcNAc
# Outline: as §1
# [30] = target: Gal(b1-3)[Fuc(a1-4)]GlcNAc(b1-2)Man(a1-3)[Gal(b1-3)[Fuc(a1-4)]GlcNAc(b1-2)Man(a1-6)]Man(b1-4)GlcNAc(b1-4)[Fuc(a1-6)]GlcNAc
# Outline: as §1
# [31] = target: Gal(b1-3)[Fuc(a1-4)]GlcNAc(b1-3)Gal(b1-3)[Fuc(a1-4)]GlcNAc
# Outline: as §1
binder,measurement,setting,value
B1,glycan array binding signal (z-score),Gal(a1-3)Gal,0.448
same,glycan array binding signal (z-score),Gal(a1-3)Gal(b1-3)GlcNAc,1.52
same,glycan array binding signal (z-score),[1],0.335
same,glycan array binding signal (z-score),[2],-0.256
same,glycan array binding signal (z-score),[3],-0.202
same,glycan array binding signal (z-score),Gal(a1-3)Gal(b1-4)Glc,-0.204
same,glycan array binding signal (z-score),Gal(a1-3)Gal(b1-4)GlcNAc,-0.452
same,glycan array binding signal (z-score),[4],-0.409
same,glycan array binding signal (z-score),[5],-0.196
same,glycan array binding signal (z-score),[6],0.173
same,glycan array binding signal (z-score),Gal(a1-3)GalNAc,-0.238
same,glycan array binding signal (z-score),[7],0.162
same,glycan array binding signal (z-score),[8],-0.091
same,glycan array binding signal (z-score),Gal(a1-4)Gal(b1-4)Glc,-0.442
same,glycan array binding signal (z-score),Gal(a1-4)Gal(b1-4)GlcNAc,0.556
same,glycan array binding signal (z-score),[9],1.29
same,glycan array binding signal (z-score),[10],-0.505
same,glycan array binding signal (z-score),Gal(a1-4)GlcNAc,1.29
same,glycan array binding signal (z-score),Gal(a1-6)Glc,-0.405
same,glycan array binding signal (z-score),Gal(b1-2)Gal,-0.458
same,glycan array binding signal (z-score),Gal(b1-3)Gal,-0.422
same,glycan array binding signal (z-score),Gal(b1-3)Gal(b1-4)GlcNAc,2.24
same,glycan array binding signal (z-score),[11],1.78
same,glycan array binding signal (z-score),Gal(b1-3)GalNAc,0.146
same,glycan array binding signal (z-score),[12],-0.235
same,glycan array binding signal (z-score),[13],-0.06
same,glycan array binding signal (z-score),[14],0.095
same,glycan array binding signal (z-score),[15],-0.338
same,glycan array binding signal (z-score),[16],0.446
same,glycan array binding signal (z-score),Gal(b1-3)GlcNAc,1.14
same,glycan array binding signal (z-score),[17],-0.529
same,glycan array binding signal (z-score),[18],-0.233
same,glycan array binding signal (z-score),[19],-0.254
same,glycan array binding signal (z-score),[20],-0.174
same,glycan array binding signal (z-score),[21],-0.433
same,glycan array binding signal (z-score),[22],-0.1
same,glycan array binding signal (z-score),[23],-0.471
same,glycan array binding signal (z-score),[24],-0.037
same,glycan array binding signal (z-score),[25],2.22
same,glycan array binding signal (z-score),[26],-0.115
same,glycan array binding signal (z-score),[27],-0.308
same,glycan array binding signal (z-score),[28],-0.402
same,glycan array binding signal (z-score),[29],0.237
same,glycan array binding signal (z-score),[30],-0.2
same,glycan array binding signal (z-score),[31],-0.352
